# This is one part of the list. At the low end of the ranking the order means little.
# Tested on: T1, GST-NbGlk1(82-244)
# T1 sequence: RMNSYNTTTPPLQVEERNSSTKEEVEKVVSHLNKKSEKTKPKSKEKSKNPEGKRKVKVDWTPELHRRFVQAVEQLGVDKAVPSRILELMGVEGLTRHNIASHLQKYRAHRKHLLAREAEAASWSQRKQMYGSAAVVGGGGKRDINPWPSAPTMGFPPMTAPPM
# Assay: protein-binding microarray;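 note: rank-based score ranging −0.5 to +0.5 with E above 0.45 taken as significant binding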
# Settings: NbGlk1 is a Golden2-like transcription factor of Nicotiana benthamiana; high values mean tight binding; most listed sequences are background and not binding sites; double strand, one strand shown
row,Sequence,binding signal
1,ATGGCTTG,-0.0401 E-score
2,CACTATAC,0.084 E-score
3,ACATCCGT,0.0593 E-score
4,ACGGGGCT,-0.141 E-score
5,AATGGCCC,-0.254 E-score
6,ATATATAT,0.244 E-score
7,AACAGCTT,-0.0586 E-score
8,AATTTGCC,0.162 E-score
9,ACTCAACT,-0.0644 E-score
10,AGATGAGG,-0.155 E-score
11,AATCCAGC,0.364 E-score
12,AACGAAGG,-0.157 E-score
13,ACGCCTGG,-0.168 E-score
14,AACACACG,0.0279 E-score
15,ACCACAGT,-0.0717 E-score
16,ACTGTTAA,0.0611 E-score
17,ATGATCAG,0.0902 E-score
18,ACGATAAG,0.0808 E-score
19,AAGTCGAG,-0.226 E-score
20,ACAGGAAA,0.137 E-score
21,AATTGCGG,0.199 E-score
22,CAAGAAGG,-0.158 E-score

row,Sequence,binding signal
1,ACCGTATG,-0.0833 E-score
2,ACGGCGCT,-0.191 E-score
3,AAATCAGA,0.315 E-score
4,ACCGAATC,0.363 E-score
5,ACCGTTCA,-0.0995 E-score
6,ATTCTAGC,0.157 E-score
7,CACCCTAC,-0.169 E-score
8,ACGCCGAG,-0.126 E-score
9,AATCCGTC,0.39 E-score
10,ACAAAACT,-0.00477 E-score
11,AGACGTCA,0.0486 E-score
12,AGTGCCAT,-0.103 E-score
13,AAGCCAAT,-0.0167 E-score
14,AACAGGGT,-0.0616 E-score
15,AGCCTGGG,-0.309 E-score
16,AAGGTCCC,-0.278 E-score
17,AAAGTCAG,-0.0648 E-score
18,AGAGATCC,0.346 E-score
19,AGCTGCCA,-0.163 E-score
20,AACTCCTG,-0.193 E-score
21,ACAAGCAG,0.0175 E-score
22,AGTACCCG,-0.227 E-score

row,Sequence,binding signal
1,CAAACTAC,0.0598 E-score
2,ACCGCACC,-0.0827 E-score
3,CACTGAAA,0.109 E-score
4,AGGCTGAG,-0.189 E-score
5,AAAACCTA,0.069 E-score
6,ACCCGCCT,-0.0782 E-score
7,ATTGCTCA,0.177 E-score
8,AGGATGGA,-0.122 E-score
9,AGACGGGG,-0.231 E-score
10,AGCAAATA,0.221 E-score
11,AGCGTCGG,-0.254 E-score
12,CAGATATC,0.468 E-score
13,AAAAATGC,-0.00179 E-score
14,ATCGCGCG,0.356 E-score
15,AGGGTATG,-0.0161 E-score
16,AAAAAAGC,0.0454 E-score
17,ATTGCACG,0.251 E-score
18,ATGGGTGG,0.024 E-score
19,AGCATCCG,-0.159 E-score
20,ACAGTTTA,-0.099 E-score
21,ATGGCAAG,-0.114 E-score
22,AAATAGGA,0.105 E-score

row,Sequence,binding signal
1,ACGCTAAT,-0.0991 E-score
2,ATGCCCTG,-0.141 E-score
3,ACCCTTGA,-0.244 E-score
4,ACCCGTAC,-0.232 E-score
5,AAGGTGCG,-0.236 E-score
6,ATTAGATG,0.0767 E-score
7,ACCACATG,-0.135 E-score
8,ACGACAGC,-0.158 E-score
9,ACATCACC,-0.093 E-score
10,AATCCGAG,0.384 E-score
11,ACGGGACG,-0.212 E-score
12,AAATAAAA,0.273 E-score
13,CACCCATC,-0.0354 E-score
14,AATGCCGC,-0.226 E-score
15,AATAAGAG,-0.0692 E-score
16,AGTGTCCC,-0.212 E-score
17,ATTCCACG,0.222 E-score
18,AATCGAAA,0.32 E-score
19,CAAATAGG,-0.0755 E-score
20,ATATCGCC,0.333 E-score
